Laboratory results as given in PubChem BioAssay AID463173 (ICCB-Longwood Screening Facility, Harvard Medical School, 2010).
Screen size: about 52,000 compounds; about 4,300 (8.3%) were called active. Rule as the data show it: active = survival mostly below about 52% (no sharp cut-off); inactive = mostly above about 56%. This is one part of the list.

Tested on: DeltatarO mutant
Assay: S. aureus survival, RN4220 and DeltatarO strains – OD600, teichoic acid synthesis inhibitors, primary screen (AID 463173)
Settings: S. aureus RN4220 wild type/DeltatarO growth, OD600, 18 h, active compounds read low, screened at 18.75 µg/mL (by protocol)

| Structure (SMILES) | survival |
| --- | --- |
| COc1ccc(-n2c(=O)c3c4c(sc3n(Cc3cc(=O)n5c(C)cccc5n3)c2=O)CCC4)c(OC)c1 | inactive: 61% |
| CCN1C(=O)CC(C(=O)Nc2ccc(OC)cc2)SC1=Nc1ccc(C)c(C)c1 (stereo not drawn) | inactive: 50% |
| O=C(Cn1cnc2c(cnn2-c2ccccc2)c1=O)N1CCCc2ccccc21 | inactive: 96% |
| CC1(C)CC(=O)C2=C(C1)N(CC(=O)O)C1=C(C(=O)CC(C)(C)C1)C2c1ccccc1 | inactive: 76% |
| O=C(NCCC1=CCCCC1)c1ccc2c(c1)N(Cc1ccccc1)C(=O)c1ccccc1S2(=O)=O | inactive: 67% |
| COc1ccc(OC)c(CNS(=O)(=O)c2ccc(-c3cc(C(F)(F)F)on3)s2)c1 | active: -4% |
| O=C(Cn1cc(SCc2ccccc2Cl)c2ccccc21)N1CCCCCC1 | inactive: 74% |
| O=C(Nc1ccc2c(c1)N(C1CCCC1)C(=O)c1ccccc1S2)c1ccccc1 | inactive: 60% |
| COc1cccc(-c2nc(CS(=O)CC(=O)N3CCN(c4cccc(C(F)(F)F)c4)CC3)c(C)o2)c1 (stereo not drawn) | active: 0% |
| COc1ccc(CCNC(=O)C(=O)NCC(c2cccs2)S(=O)(=O)c2ccccc2)cc1 (stereo not drawn) | inactive: 129% |
| Cc1ccc(SCC(=O)Nc2ccc3oc(-c4cccc(C)c4)nc3c2)cc1 | inactive: 64% |
| N=C(N=Nc1c(O)n(Cc2ccccc2)c2ccccc12)SCC(=O)Nc1ccccc1 | active: 23% |
| Cc1ccc(Cl)cc1NC(=O)CCS(=O)(=O)c1ccc(Br)s1 | inactive: 49% |
| Cc1ccc(N2CC(C(=O)OCC(=O)C(C)(C)C)CC2=O)cc1 (stereo not drawn) | inactive: 103% |
| CC(C)CCNC(=O)CSc1nc2ccsc2c(=O)n1Cc1ccccc1Cl | inactive: 82% |
| COC(=O)CSc1n[nH]c(C)n1 | inactive: 92% |
| COc1ccc(-c2noc(-c3ccccc3NC(=O)c3cc(OC)c(OC)c(OC)c3)n2)cc1 | active: 34% |
| O=C(c1cc2ccccc2oc1=O)N(Cc1ccc2c(c1)OCO2)CC1CCCO1 (stereo not drawn) | active: 42% |
| O=S(=O)(Nc1nc2n(n1)C(c1ccccc1)C=C(c1ccc(Cl)cc1)N2)c1ccccc1 (stereo not drawn) | active: 47% |
| Cc1ccc(N2CCN(C(=O)c3nn(C)c4c3CSc3ccccc3-4)CC2C)cc1 (stereo not drawn) | inactive: 53% |
| Cc1ccc(CNC(=O)CN(c2cc(C)cc(C)c2)S(=O)(=O)c2c(C)[nH]c(=O)[nH]c2=O)cc1 | inactive: 91% |
| CCc1ccc(C2c3c(n[nH]c3C)C(=O)N2c2ccc(C)cc2)cc1 (stereo not drawn) | active: 8% |

| Structure (SMILES) | survival |
| --- | --- |
| CCc1cccc(NC(=O)CCS(=O)(=O)c2ccc(C)cc2)c1 | inactive: 88% |
| O=C(NC1CCCC1)c1ccc2c(c1)N(Cc1ccc(F)cc1)C(=O)c1ccccc1S2 | inactive: 81% |
| O=C(NCCCN1CCN(c2ccccc2)CC1)c1cc2c(s1)-c1ccccc1OC2 | inactive: 53% |
| CCC1CN(C(=O)Nc2cccc3c2CCCC3)c2cc(C)ccc2O1 (stereo not drawn) | inactive: 49% |
| CCOC(=O)c1c(C)oc2nc(C)nc(NCCCN3CCN(c4cccc(C)c4)C(C)C3)c12 (stereo not drawn) | inactive: 117% |
| Cc1ccccc1Cc1c(C)nc2nc(SCC(=O)NC(C)c3ccccc3)nn2c1C (stereo not drawn) | active: 57% |
| CCCCNC(=O)C1CCN(Cc2nc(-c3ccc(OC)c(OC)c3)oc2C)CC1 | inactive: 99% |
| O=C1NC(=O)C(Nc2ccccc2Cl)S1 (stereo not drawn) | inactive: 78% |
| Cc1cccc(NC(=O)c2c(Br)sc3c2CCCC3)c1 | active: 3% |
| O=C(NCc1ccc(Cl)cc1)C1CCCN(c2ncnc3onc(-c4ccc(F)cc4)c23)C1 (stereo not drawn) | inactive: 98% |
| COc1ccc(Nc2nnc(-c3ccc(C)c(S(=O)(=O)N4CCOCC4)c3)c3ccccc23)cc1 | inactive: 66% |
| COc1ccccc1N1CCN(C(=O)CSc2nc(-c3ccc(C(C)C)cc3)no2)CC1 | inactive: 102% |
| O=C(CSc1nc2ccccc2o1)NN=C1CCCC1 | inactive: 90% |
| O=C(COc1ccccc1F)Nc1nnc(S(=O)(=O)N2CCCCCC2)s1 | active: 51% |
| CCOc1cc(C2c3c(oc4ccc(F)cc4c3=O)C(=O)N2Cc2ccc(C)cc2)ccc1O (stereo not drawn) | inactive: 169% |
| CCCCNC(=O)CSc1nc2n[nH]c(C)c2c(=N)n1-c1ccccc1CC | inactive: 89% |
| COc1ccc(C2CC(=O)c3c([nH]c(C(=O)OCc4ccccc4)c3C)C2)cc1OC (stereo not drawn) | inactive: 95% |
| CCN(C(=O)NCc1noc2ccccc12)c1cc(C)ccc1C | inactive: 55% |
| CCOC(=O)c1nc(Nc2cccc(C)c2)c2ccccc2n1 | inactive: 75% |
| CCOc1ccc(CNC(=O)CCn2cccn2)cc1OC | inactive: 73% |
| Cc1ccc2nc(/C(C#N)=C/c3ccc(-c4cccc(Cl)c4)o3)[nH]c2c1 | active: 6% |
| Cc1cc(C)c2[nH]c(=O)c(CN(C3CCCCC3)C(c3nnnn3Cc3ccco3)C(C)C)cc2c1 (stereo not drawn) | inactive: 107% |

| Structure (SMILES) | survival |
| --- | --- |
| Cc1nc2nc(SCC(=O)NC(C)c3ccccc3)nn2c(C)c1Cc1c(F)cccc1Cl (stereo not drawn) | inactive: 68% |
| CCOc1ccc(CN2C(=O)c3ccccc3Sc3ccc(C(=O)NCc4ccc(C)cc4)cc32)cc1 | inactive: 75% |
| COC(=O)c1ccc(NC(=O)CC2C(=O)N(c3cccc(OC)c3)C(=O)N2Cc2cccc(OC)c2)cc1 (stereo not drawn) | inactive: 105% |
| O=C(CSc1oc(-c2ccco2)nc1S(=O)(=O)c1ccc(Cl)cc1)c1ccccc1 | inactive: 125% |
| CCN(CCCNC(=O)c1nn(-c2ccc(OC)cc2)c(=O)c2c1c1ccccc1n2C)c1cccc(C)c1 | inactive: 82% |
| COc1ccc(-c2cccc(NS(=O)(=O)c3cc(C)c(Cl)cc3C)c2)nn1 | inactive: 102% |
| CCCCC12CN3CC(C)(CN(C1)C3c1c(C)[nH]c(=O)[nH]c1=O)C2=O (stereo not drawn) | inactive: 76% |
| CCOc1ccc(CCNC(=O)c2cc3c(-c4cccc(OC)c4)nn(C)c3s2)cc1OCC | inactive: 66% |
| CCOc1ccc(NC(=O)CN2C(=O)C(c3ccccc3)=NC23CCCCCC3)cc1 | inactive: 90% |
| Cc1cc(NC(=O)CN(C)S(=O)(=O)c2ccc3c(c2)CCC(=O)N3)ccc1Br | inactive: 73% |
| Cc1cccc(Cn2c(C)c(C)c3cc(C(=O)NCc4ccc(C)o4)ccc32)c1 | inactive: 86% |
| Cc1cccc(C(CC(=O)NCC2(c3ccccc3)CCCC2)c2ccccc2)c1O (stereo not drawn) | active: 38% |
| CCC(C(=O)NCCc1ccc(Cl)cc1)n1nc(C)c2c(C)n(-c3ccccc3)nc2c1=O (stereo not drawn) | inactive: 115% |
| O=C(Sc1cccc2cccnc12)N1CCOCC1 | inactive: 70% |
| Cc1ccc(S(=O)(=O)c2nnn3c2nc(Nc2ccc(C(C)C)cc2)c2sccc23)cc1C | inactive: 32% |
| CCOc1ccc(-n2c(SCc3nc(-c4ccccc4C)no3)nnc2-c2ccccc2)cc1 | inactive: 77% |
| CCC(=O)Nc1ccc2c(c1)N(C(C)=O)c1ccccc1CC2 | inactive: 75% |
| CC(C)Cc1nn2c(=O)cc(COC(=O)c3ccccc3NC(=O)c3ccccc3)nc2s1 | inactive: 117% |
| CC(=O)Nc1ccc(NC(=O)CN2C(=O)CN(C)C(=O)c3ccccc32)cc1 | inactive: 86% |
| Cc1[nH]nc(CSSCc2n[nH]c(C)c2C(=O)NN)c1C(=O)NN | inactive: 95% |
| COCCCn1c(=N)c(C(=O)NC2CCCC2)cc2c(=O)n3ccccc3nc21 | inactive: 85% |
| Cc1ccc(-c2nc3c4cnn(-c5cc(Cl)ccc5Cl)c4ncn3n2)cc1 | inactive: 69% |

| Structure (SMILES) | survival |
| --- | --- |
| Cc1ccc(CCNC(=O)CCSCc2ccc(Cl)cc2)cc1 | inactive: 82% |
| CN(C)c1ccc(CN(CC2CCCO2)C(=O)COc2ccc(Cl)cc2)cc1 (stereo not drawn) | inactive: 59% |
| CCc1ccc(-n2c(C)nc3cc(C(=O)NCCc4ccccc4)ccc32)cc1 | inactive: 107% |
| COc1cccc(CN2C(=O)c3ccccc3C2C(=O)NCCc2ccc(OC)c(OC)c2)c1 (stereo not drawn) | inactive: 83% |
| COc1ccccc1NC(=O)CSc1ncc2c(n1)-c1cc(Cl)ccc1N(C)S2(=O)=O | inactive: 98% |
| CC(C)CC(=O)Nc1ccc(C(=O)OCc2cc(=O)n3nc(C4CCCCC4)sc3n2)cc1 | inactive: 55% |
| Cc1nc(N2CCCC2)ncc1C(=O)Nc1ccccc1 | inactive: 99% |
| Cc1cc(O)c(C(c2cccc(Cl)c2)N2CCN(c3ccccc3)CC2)c(=O)n1Cc1ccco1 (stereo not drawn) | inactive: 99% |
| CC(=O)N1CCCc2cc(S(=O)(=O)N3CCCC(C(=O)NCc4ccc(Cl)cc4)C3)ccc21 (stereo not drawn) | inactive: 86% |
| CCCn1c(=O)c2sccc2n2c(CCCC(=O)NCCOC)nnc12 | inactive: 86% |
| O=C(c1cccs1)N1CCN(C/C=C/c2ccccc2)CC1 | inactive: 91% |
| CN(C)c1ccc(CNc2nc(-c3ccco3)nn2C(=O)c2cccc([N+](=O)[O-])c2)cc1 | inactive: 66% |
| COC(=O)c1cc(Cl)c(NC(=O)/C=C/c2ccc(Cl)cc2Cl)cc1OC | inactive: 50% |
| CCOC(=O)c1ccc(NC2=CC(c3ccc(Br)cc3)N(c3ccc(C(=O)OCC)cc3)C2=O)cc1 (stereo not drawn) | inactive: 128% |
| Cc1cccc(Oc2nc3c(C)cccn3c(=O)c2/C=C(\C#N)c2nc3ccccc3s2)c1 | inactive: 69% |
| COc1cccc(Cc2nc3ccccc3nc2SCC(=O)N2CCc3ccccc32)c1 | inactive: 93% |
| O=S(=O)(c1ccccc1)c1nc(-c2cccc(Cl)c2)oc1NCc1ccccc1 | inactive: 83% |
| COCCNC(=O)CSc1nnc(-c2ccc(OC)c(OC)c2)c(-c2ccc(OC)c(OC)c2)n1 | inactive: 87% |
| CCOc1ccc(N2CC(c3nc4ccccc4n3CCCOc3ccc(OC)cc3)CC2=O)cc1 (stereo not drawn) | active: 44% |
| Cc1ccc2c(c1)c(=O)c1ccccc1n2CCCC(=O)Nc1ccc(F)cc1F | active: 49% |
| O=C(NC1CC(=O)N(c2ccccc2)C1)C1CCCC1 (stereo not drawn) | inactive: 128% |
| CC(Sc1ncc(S(=O)(=O)c2ccc(C(C)C)cc2)c(N)n1)C(=O)Nc1ccccc1 (stereo not drawn) | inactive: 60% |
